Experimental data reported in PubChem BioAssay AID624296 (National Center for Advancing Translational Sciences (NCATS), 2012).
In all, about 350,000 compounds went through this assay and about 9,900 (2.8%) were called active. This list was built around the results that the source calls inconclusive (neither active nor inactive); the mix of calls is not that of the screen. The call rests on the fitted dose curve; in most records, active means well fitted activation curve with a large enough effect; inconclusive means small, poorly fitted or top-dose-only effect; inactive means no such curve, though single readings can be large or run the other way. No potency is given beside an inconclusive call; the fits are too rough.

Test: A quantitative high throughput screen for small molecules that induce DNA re-replication in MCF 10a normal breast cells. Further: nearly all actives have a fitted effect of over 50% in size. On activity, positive = re-replication: % of control where 0% means no effect.
Settings: MCF 10A DNA re-replication, Hoechst nuclear intensity, 48 h; activity, positive = re-replication: at 46.1 µM (top of the series)
Potency means the concentration at half of the fitted maximal effect; tags describe the fitted curve by direction and shape.

Structure (SMILES) | Potency | activity, positive = re-replication
CN=c1sc2c(n1C)C(=O)c1ccccc1C2=O | active: 8.2 µM | –
COC(=O)C1=CN(c2cc(C)cc(C)c2)C=C(C(=O)OC)C1c1cccc(F)c1 | active: 3.66 µM | –
CC(=O)NCCc1nc2cc(NC(=O)Nc3ccccc3)ccc2n1C | inconclusive [activator, single point] | –
Cc1ccc(C(=O)NCC2CCCO2)cc1[N+](=O)[O-] (stereo unspecified) | – | inactive: 1.21%
O=C(c1cc2ccccc2cc1O)N1CCN(c2ccccc2O)CC1 | inconclusive [activator, full curve, poor fit] | –
CCOC(=O)c1ccc(NS(=O)C23CC4CC(CC(C4)C2)C3)cc1 (stereo unspecified) | inconclusive [activator, single point] | –
Cc1ccc(-c2nc(C3CCN(S(=O)(=O)c4ccc(C(F)(F)F)cc4)CC3)no2)cc1 | – | inactive: 1.58%
O=C(Nc1ccc(OC(=O)c2ccccc2)c(-c2nc3ccccc3s2)c1)c1ccccc1 | active: 20.6 µM | –
O=C(O)CC/C(=N/NC(=O)CNC(=O)C(c1ccccc1)c1ccccc1)c1ccccc1 | – | inactive: 9.06%
COc1ccc(-n2c(N)c(-c3nc4ccccc4n3C)sc2=S)cc1 | – | inactive: 16.2%
CCOc1ccccc1NC(=O)Cn1c(=O)n(-c2ccccc2)c(=O)c2oc3ccccc3c21 | – | inactive: -1.44%
CCOc1ccccc1N1CCN(C(=O)c2cccc(-c3ccc(O)cc3)c2)CC1 | inconclusive [activator, single point] | –
COc1cccc(NC(=O)C2CCC(CNS(=O)(=O)c3cccs3)CC2)c1 (stereo unspecified) | inconclusive [activator, single point] | –
COCCNC(=S)NCc1ccc2[nH]c3c(c2c1)CCCC3 | inconclusive [activator, partial curve, poor fit] | –
O=C(OCCOc1cccc(Cl)c1)c1cc(S(=O)(=O)N2CCCCC2)ccc1N1CCOCC1 | inconclusive [activator, full curve, poor fit] | –
COc1cc(OC)c(C(=O)OCC(=O)Nc2ccc(S(=O)(=O)N3CCOCC3)cc2)cc1OC | – | inactive: -1%
O=C(Cc1cc(=O)[nH][nH]1)N/N=C/c1cccc(Cl)c1Cl | inconclusive [activator, partial curve, poor fit] | –
O=C(NCc1ccccc1Cl)C1CCN(c2cnccn2)CC1 | active: 0.517 µM | –
CC[C@@H](C)[C@H](NC(=O)OC(C)(C)C)c1nnc(S(=O)(=O)Cc2cc(C)ccc2C)o1 | active: 4.11 µM | –
COc1ccc(S(=O)(=O)N2CCOc3ccccc32)cc1 | active: 4.61 µM | –
COc1ccc(C(C(=O)NCCC(C)C)N(CCO)C(=O)c2snc(C(N)=O)c2N)cc1 (stereo unspecified) | – | inactive: 26%
